Test results published in PubChem BioAssay AID1963576 (National Center for Advancing Translational Sciences (NCATS), 2024).
The whole screen tested about 46,000 compounds, of which about 60 (0.1%) were called active. About 3% were inconclusive and are not listed. The call rests on the fitted dose curve; in most records, active means well fitted inhibition curve with a large enough effect; inconclusive means small, poorly fitted or top-dose-only effect; inactive means no such curve, though single readings can be large or run the other way. The list shows a part of the results.

assay: Primary qHTS assay for Inhibitors of ovarian cancer metastasis using an organotypic tumor microenvironment (TME) model.; further: nearly all actives have a fitted effect of over 65% in size;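 on activity change, negative = inhibition: plate controls were DMSO wells for no effect and tomatine positive control wells for full effect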; conditions: SKOV3ip1-GFP adhesion/invasion on 3D omental model, fluorescence; series mostly up to 45.8 µM; activity change, negative = inhibition: at the top concentration
Procedure, shortened: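 Primary human omental fibroblast/mesothelial 3D culture pre-formed 48 h. SKOV3ip1-GFP cells added with compounds (0.36-46 umol/L), incubated 2 h RT/16 h 37 C, fixed; GFP cells quantified at 488/509 nm.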

Activity change, negative = inhibition, inactive:
COc1ccc(/C=C\c2onc(C)c2S(=O)(=O)N2CCC(C(=O)Nc3ccc(C)c(F)c3)CC2)cc1 4.92%
CCOC(=O)c1nnc2c(-c3ccc(F)cc3)c(C)nn2c1N 3.06%
Fc1ccc(-c2noc3ncnc(NCc4cccc(Cl)c4)c23)cc1 3.03%
CSc1cccc(NS(=O)(=O)c2ccc3[nH]cc(C(=O)N4CCCCCC4)c(=O)c3c2)c1 9.42%
Cc1ccc(-c2onc(C)c2C)cc1S(=O)(=O)NC1CCC(C)CC1 (stereo unspecified) -4.27%
CCOc1cc(C2CC(=O)Nc3c2c(C)nn3-c2nc(C)cc(C)n2)ccc1O (stereo unspecified) 0.697%
COC(=O)c1cccnc1-n1c(=O)c2cccnc2n(CC(=O)Nc2cccc(C(F)(F)F)c2)c1=O -0.562%
COc1ccc(/C=C(\C#N)c2nc(-c3cc4ccccc4oc3=O)cs2)cc1OC 0.42%
COc1ccc2c(c1)Cc1sc(NC(=O)c3cccc(Cl)c3)nc1-2 1.01%
CC(=O)Nc1nonc1-c1nnc(SCc2cccc(Br)c2)n1C 2.94%
CCCN(CCC)CCCNC(=O)c1nn(C)c2c1CS(=O)(=O)c1ccccc1-2 1.76%
CC(C)c1ccc(-c2noc(SCC(=O)N3CCCCC3)n2)cc1 2.23%
O=C(/C=C/c1ccccc1)Nc1cc(-c2nc3ccccc3o2)ccc1Cl 0.796%
COc1cc(C)ccc1OCCSc1nnc(-c2cccs2)o1 5.03%
COc1ccc(-n2nc(C(=O)NCCc3cccc(C)c3)c3c4ccccc4n(C)c3c2=O)cc1Cl 28.3%
CCOC(=O)c1ccc(Nc2cc(-c3ccccc3)nc(C)n2)cc1 -5.8%
Cc1cccc(-c2nc(SCC(=O)Nc3ccc4c(c3)OCCO4)c(-c3ccccc3)[nH]2)c1 3.12%
CCc1nn2c(=O)cc(COC(=O)C(c3ccccc3)c3ccccc3)nc2s1 220%
COc1ccc(CNC(=O)Cc2csc3nc(-c4ccc(C)cc4)cn23)cc1 2.94%
COC(=O)CC1Oc2ccccc2-n2cc(-c3ccc(Cl)cc3)nc21 (stereo unspecified) -12.1%
O=C(COc1ccccc1)Nc1ccccc1C(=O)OCc1cc(=O)n2nc(C3CC3)sc2n1 2.06%
Cc1nnc(N2CCN(c3ccccc3F)CC2)c2c1nnn2Cc1ccccc1 4.04%
COc1ccc(NC(=O)CCn2cccn2)cc1OC -14.8%
Cc1cccc(C(=O)Nc2ccccc2SCc2cc(=O)c3cccc(C)c3[nH]2)c1 2.44%
CCOCCc1nn2c(=O)cc(COC(=O)C(CC)c3ccccc3)nc2s1 (stereo unspecified) 4.67%
Cc1ccc(N(C)C(=O)C2CCCN(c3ncnc4c3nc3n4CCCCC3)C2)cc1C (stereo unspecified) 5.37%
Cc1ccc(Cn2c(=O)n(Cc3ccccc3Cl)c(=O)c3ccccc32)cc1 -3.91%
CCCn1cc(S(=O)(=O)c2ccc(CC)cc2)c(=O)c2ccccc21 -4.43%
O=C(NC1CCNCC1)c1[nH]ncc1NC(=O)c1c(Cl)cccc1Cl 19.2%
Cc1ccc(-c2nc3cc(Cl)ccc3o2)cc1NC(=O)COc1ccc(F)cc1 -6.51%
COc1cccc(C2CC(=O)Nc3c2c(=O)nc2c(C)cccn32)c1OC (stereo unspecified) 2.95%
Cc1ccc(C(c2sc3nc(-c4ccco4)nn3c2O)N2CCN(Cc3ccccc3)CC2)cc1 (stereo unspecified) -14%
COc1ccccc1CNC(=O)c1cnn2c(C)c(Cc3ccc(F)cc3)c(C)nc12 -17.1%
Cc1cccc(N2CCN(C3(c4ccccc4)C(=O)c4ccccc4C3=O)CC2C)c1 (stereo unspecified) 9.21%
COc1ccc2c(c1OC)C(=O)OC2[C@H]1c2c(cc3c(c2OC)OCO3)CCN1C (stereo partly specified) 35.4%
CCOC(=O)c1ccc(NC(=O)CN2C(=O)COc3ccc(Cl)cc32)cc1 -6.01%
COc1ccc(N2CCN(C(=O)c3oc4ccccc4c3NC(=O)c3ccccc3OC)CC2)cc1 -11%
COc1ccc(-c2nc3sc(CCNC(=O)C(=O)Nc4c(C)cccc4C)c(C)n3n2)cc1 -2.92%
CC1CCCN(CCCNC(=O)CN2C(=O)CSc3ccc(S(=O)(=O)N4CCOCC4)cc32)C1 (stereo unspecified) 2.47%
CC(C)(C)OC(=O)N1CCC(c2c(C(=O)NC3CCCCC3)cnn2-c2cccc(Cl)c2)CC1 -4.22%
Cc1ccc(Cl)cc1N1CCN(C(=O)C2CCN(Cc3nc(-c4ccc(Cl)cc4)oc3C)CC2)CC1 -1.88%
Cc1c(C(=O)N2CCC(C)CC2)c(S(=O)(=O)N2CCN(c3ccc(Cl)cc3)CC2)c(C)n1C -1.28%
O=C(Cn1c(=O)oc2cc(S(=O)(=O)NC3CCCC3)ccc21)Nc1ccc(F)c(F)c1 4.47%
CN1C(=O)Cc2cc(S(=O)(=O)NCCc3ccccc3)ccc21 7.12%
Cc1cccc(-c2nc(SCC(=O)Nc3ccc4c(c3)OCO4)c(-c3ccccc3)[nH]2)c1 -15.2%
O=C(CCn1c(=O)c2cccn2c2cccnc21)N1CCN(c2cccc(Cl)c2)CC1 0.568%
CCc1ccc(OCC(=O)N(Cc2ccc(OC)cc2)C2CCS(=O)(=O)C2)cc1 (stereo unspecified) -0.943%
CCOC(=O)c1cc(-c2ccc(C)cc2)n(CCC(=O)Nc2ccc(OC)c(OC)c2)c1C 0.395%
COCCCNC(=O)Cn1cnc2sc(C)c(S(=O)(=O)N3CCN(c4ccccc4OC)CC3)c2c1=O -3.98%
CCN1CCN(C(=O)c2ccc3c(c2)N(Cc2cccc(F)c2)C(=O)c2ccccc2S3)CC1 -6.29%
CCn1c2ccccc2c2cc(NC(=O)COc3ccc(C)c(C)c3)ccc21 -8.87%
CCOC(=O)c1ccc(NC(=O)CC2NCCNC2=O)cc1 (stereo unspecified) 4.34%
Cc1ccc2nc3c(cc(C(=O)NC4CCCCC4)c(=N)n3C(C)C)c(=O)n2c1 -5.45%
CCC(C)NC(=O)C1CCC(CNS(=O)(=O)c2ccc(Cl)cc2)CC1 (stereo unspecified) -9.55%
Cc1ccc(-c2ccc(=O)n(CC(=O)NCc3ccc(F)cc3)n2)cc1 -2.82%
CC(=O)NC(C)c1ccc(Oc2ccc(OC(C)C)cc2)cc1 (stereo unspecified) -9.24%
COc1ccc(-c2nc3n(n2)C(=O)CC(c2ccc(Cl)cc2)S3)cc1 (stereo unspecified) 8.25%
CC(=O)c1ccc(N2CCN(S(=O)(=O)c3ccc(-c4cc(C)no4)s3)CC2)cc1 -0.113%
COC(=O)c1c(NC(=O)COc2cc(C)ccc2C(C)C)sc2c1CCC(C)C2 (stereo unspecified) 0.418%
Cc1cccc(NC(=O)CCn2nc(-c3ccccc3)c3ccccc3c2=O)c1 -11.6%
CCOc1cc(C(=O)Nc2ccc(-c3nc4ncccc4o3)cc2C)cc(OCC)c1OCC -5.31%
CC1=C(C(=O)Nc2ccccc2C)C(c2cccnc2)n2nc(SCc3ccccc3F)nc2N1 (stereo unspecified) -9.95%
COC(=O)c1ccc(NC(=O)C2CCN(C(=O)c3ccc(F)cc3)CC2)cc1 6.47%
O=C(O)CCc1ccc(-c2ccccc2)n1CC(=O)Nc1ccccc1C(F)(F)F -5.24%
Cc1ccccc1Nc1nn2c(=O)c3ccc(C(=O)N4CCCC(C)C4)cc3nc2s1 (stereo unspecified) -2.84%
CCOc1ccc(CNS(=O)(=O)c2cc(-c3cc(C)no3)ccc2C)cc1OC 0.496%
O=C1CC(c2ccc(Cl)cc2)Sc2nc(-c3ccc(F)cc3)nn21 (stereo unspecified) 6.41%
O=C(CCc1ccccc1)NC1CC(=O)N(c2ccccc2)C1 (stereo unspecified) -3.27%
COc1cccc(OC)c1C(=O)Nc1ccc2c(c1)N(C(C)=O)CCC2 -8.56%
Cc1ccc(NC(=O)CCC(=O)N2Cc3ccccc3Oc3ncccc32)cc1 -18.3%
CCc1cnc2c(c1SCC(=O)Nc1ccc(C)cc1C)c(=O)n(C)c(=O)n2C 3.95%

outcome, inactive:
Cc1cccc(Cc2c(C)nc3nc(SCC(=O)NC4CCCCC4)nn3c2C)c1
COc1ccccc1N1CCN(C(=O)c2oc3ccccc3c2N)CC1
CC1CCN(S(=O)(=O)c2ccc3nc(N4CCN(c5ccccc5F)CC4)ccc3c2)CC1
CCOc1ccccc1CNC(=O)c1ccc(Cn2c(=O)c3cccn3c3cccnc32)cc1
Cc1cc(C)cc(N(CC(=O)NCc2ccccc2Cl)S(=O)(=O)c2c(C)noc2C)c1
Cc1ccccc1C(=O)Nc1nnc(S(=O)(=O)N2CCCCCC2)s1
CCOC(=O)Cn1c(=O)n(-c2ccccc2OC)c2nc(-c3ccccc3C)nc(C(N)=O)c21
Cc1ccc2occ(-c3cc(-c4ccc(Cl)cc4)nc4c3COc3ccccc3-4)c(=O)c2c1
CCCCc1nn2c(=O)cc(COC(=O)c3ccc(NC(=O)C4CCCCC4)cc3)nc2s1
CCOc1ccc(NC(=O)Cn2c(=O)n(CCC(=O)NCCc3ccccc3)c(=O)c3ccccc32)cc1
CCOc1ccc(NC(=O)CC2C(=O)N(c3cccc(C)c3)C(=O)N2Cc2cccnc2)cc1 (stereo unspecified)
CC1=C(C(=O)OC2CCCC2)C(c2ccccc2Cl)CC(=O)N1 (stereo unspecified)
Cn1nccc1C(=O)NCc1ccc2c(c1)CCN2C(=O)c1ccccc1
CCOc1ccccc1NC(=O)Cn1nnc(C(=O)Nc2ccc(C)c(C)c2)c1N
Cc1ccc(Cl)cc1N1CCN(S(=O)(=O)c2cc3[nH]c(=O)c(=O)[nH]c3cc2C)CC1
COc1ccc(NC(=O)C2CCCN2S(=O)(=O)c2ccc3nc(-c4ccccc4)[nH]c3c2)cc1 (stereo unspecified)
COc1ccc(CCNC(=O)c2ccc3c(c2)N(Cc2ccc(Cl)cc2)CCS3)c(OC)c1
CCCCCN1C(C(=O)c2ccccc2)=C(NC(=O)c2ccccc2Cl)c2ccccc2S1(=O)=O
Cc1cc(C)c(S(=O)(=O)n2cnc(C)c2)c(C)c1
CCS(=O)(=O)CCSc1nc(-c2ccc(Br)cc2)cc(-c2ccccc2)c1C#N
N#Cc1cccc(NC(=O)C2CCN(c3ncccn3)CC2)c1
COc1ccccc1CNC(=O)CCCCn1c(=O)c2ccccc2n(CC(=O)Nc2cc(Cl)ccc2C)c1=O
COc1ccc2c(c1)c1c(c(=O)n(-c3ccccc3C)c(=O)n1CC(=O)Nc1c(C)cccc1C)n2C
COc1ccc(-c2cnc(C)o2)cc1S(=O)(=O)Nc1ccc(C)c(N(C)C)c1
COc1ccc(NC(=O)Cn2c(SCc3ccc(C)cc3)nc3cccnc32)c(OC)c1
